Our source for the binding signal (log2 normalized intensity) values is PMC10726135.

Some of the results follow. At the low end of the ranking the order means little. Measured with an extract: partners may take part in the binding.

The target in the assay is T1, HNF4alpha2 (COS-7 nuclear extract) (UniProt P41235).
T1 sequence: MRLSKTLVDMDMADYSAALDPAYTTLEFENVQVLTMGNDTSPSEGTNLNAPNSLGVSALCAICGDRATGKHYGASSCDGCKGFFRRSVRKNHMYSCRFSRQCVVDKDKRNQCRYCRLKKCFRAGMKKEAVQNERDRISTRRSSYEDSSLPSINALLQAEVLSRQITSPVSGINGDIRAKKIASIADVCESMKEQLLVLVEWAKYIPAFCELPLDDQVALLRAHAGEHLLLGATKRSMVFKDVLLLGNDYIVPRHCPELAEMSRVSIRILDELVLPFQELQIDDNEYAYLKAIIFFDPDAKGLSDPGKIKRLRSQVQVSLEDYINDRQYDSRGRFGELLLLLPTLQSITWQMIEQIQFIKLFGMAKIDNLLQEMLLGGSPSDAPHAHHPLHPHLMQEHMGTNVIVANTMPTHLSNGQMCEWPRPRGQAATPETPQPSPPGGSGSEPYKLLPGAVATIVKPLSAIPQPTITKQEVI
Nature of the assay: protein-binding microarray. As to conditions: COS-7 nuclear extract on double-stranded Agilent 4x180k PBM; binding buffer, salt, pH and temperature not given; high values mean tight binding; double strand, one strand shown; sequences stand for … in …GCCTAGGGAGATTAGAGTATCGGTCGA
Take GTGCCGTGAGGGGTTATGGAGAGTGGAAGA: the binding signal (log2 normalized intensity) was -0.47.

Take ATCTTTATCTTTTCACTTTTTCCCTGCATG: the binding signal (log2 normalized intensity) worked out at 0.105.

With TGAGTTCTGTCCTTTGTCCCACATCTGTGA, the binding signal (log2 normalized intensity) was 1.14.

For ACCCTCAGGCTCCACCGGATGGATAGGAAT, the binding signal (log2 normalized intensity) was -1.17.

For the sequence AGGCATACTCCTCCTGGCTTCTGGACTATG, the binding signal (log2 normalized intensity) was 2.56.

On to GTCTGATTGGTTGCAGAAGGCAGCCAAACA, for which the binding signal (log2 normalized intensity) is -1.23.

In the case of GGGAAAGACTTAGGATCTAGCAAATTTGGG, the binding signal (log2 normalized intensity) was -0.0294.

As to CCCTCCTGAACATAATTGCAAAATCCTTAG, the binding signal (log2 normalized intensity) is -0.55.

On to GCAGCCTCTGAGATGGACTCCAGTGATCTT, for which the binding signal (log2 normalized intensity) is 1.97.

With TTGGAGGAGGGGGCGGTTAAACATTCAGAT, the binding signal (log2 normalized intensity) was -1.07.

Take CGACCCCTCGAGGCAACCTTTGACCTGGTA: the binding signal (log2 normalized intensity) was determined as 7.48.

For the sequence TATTTGAGTTCTTCAAGTCAGTCAAAATGA, the binding signal (log2 normalized intensity) came out at 1.3.

As for GCATTCCAAGAGAGCAAAGTGCTTTTTAAC, the binding signal (log2 normalized intensity) was found to be 0.786.

In the case of GACTTTAGAACCCAAATAGACTTAAGTCTG, the binding signal (log2 normalized intensity) is -0.295.

With CTTTCATGATCCTTGGCTGTGTGACTCACC, the binding signal (log2 normalized intensity) was 0.913.

GGAGTTCCATTTAGCTTCAGTCTAAATGAT: the binding signal (log2 normalized intensity) was -0.0539.

With AATGGCTAAGGGCATCTACTTTTAAAACGC, the binding signal (log2 normalized intensity) was -1.19.

As to TCATTTGGGGCGGGCGGTCGGAGTCCACGT, the binding signal (log2 normalized intensity) was determined as 2.48.

As for TAAGTATGACCAGCAGGGTGACCAGTGGAC, the binding signal (log2 normalized intensity) was 1.44.

In the case of ACCTCTCTGATGCCATGATAAGCAGTGTGG, the binding signal (log2 normalized intensity) was 0.855.

For CACTATTGTGCTAATATAAGTCATTGCCAT, the binding signal (log2 normalized intensity) amounted to 1.28.

Consider ACAACACACCACCTGCTACTCCCTTTGGAA, for which the binding signal (log2 normalized intensity) was -1.13.

Consider ACCTGGGTGTAGGTGCTGCACCTTGAAACC, for which the binding signal (log2 normalized intensity) amounted to 2.05.

Take TGAACAATTGATTTATAGCCTTTTTGCCCA: the binding signal (log2 normalized intensity) came out at 1.29.

With CTTTGTGGCAGGAGGAGCTGTTTGACATCC, the binding signal (log2 normalized intensity) was 0.0869.

For the sequence CACTCGCCTGACTCCCTGACGCCATCTGGC, the binding signal (log2 normalized intensity) was -1.05.

For the sequence GCTGCACAGTGGGGAGGGCAGGGTCAGAAC, the binding signal (log2 normalized intensity) stood at 0.706.

Take ACATCCTGGATTCTCAAACCTTCCAAAGTT: the binding signal (log2 normalized intensity) was -0.184.

As for TGCTCACGTTTTCCTGCTGACCCTCTCCCC, the binding signal (log2 normalized intensity) was found to be 3.85.

For the sequence ATTTGCTCTGTCATCAACGTATCTGCAGGC, the binding signal (log2 normalized intensity) was 1.22.

As to AAGAGCTGAGGAAAAAAGTTTGAAAATGCC, the binding signal (log2 normalized intensity) was -1.09.

As for CGCACCTGCCTGTCTCACCTCGCTATCACC, the binding signal (log2 normalized intensity) is -0.761.

Regarding AGGGATGGCATCACCTTTGGTCAGCCCACT, the binding signal (log2 normalized intensity) turned out to be 1.45.

GGTCCACCCGTCCGCTTGATGCCTGTTGCT: the binding signal (log2 normalized intensity) is -0.505.

With GGAAAACAGGCTCAGCAAAGTCAGGTCAGT, the binding signal (log2 normalized intensity) is -0.872.

Turning to TCACAGTGTGGGGCAAATCTGAGGTCAAAG, the binding signal (log2 normalized intensity) is 2.22.

With AATGCCAAGGACTGAAAGAACACAGCGCAG, the binding signal (log2 normalized intensity) was -0.993.

Take TGAAGATGCCTGATAAAGGGGGCAAAGGGC: the binding signal (log2 normalized intensity) turned out to be 5.79.

Turning to TTGTTTATTCAGAGTTAGCTAAGCTTCACT, the binding signal (log2 normalized intensity) is -1.12.

As for GAGCAGTCAAACTGGTTTCTTGTCTGCCCC, the binding signal (log2 normalized intensity) stood at 3.42.

Consider AGGGGCTGCTGGGAGTTGTAGTTTTTTGGG, for which the binding signal (log2 normalized intensity) was 1.54.

ACCTTGTTTTGTCTTCTGTTTGCAAATGGA: the binding signal (log2 normalized intensity) was 2.54.

As to TGCATTCTTGTAGGTTTTTTTTTTTTTTAA, the binding signal (log2 normalized intensity) was found to be 2.29.

TCTGCTGAGGTGGCTGCAGAGTGGGAGGCC: the binding signal (log2 normalized intensity) is -1.03.

With CTTTTTTTTTTCAAGTGTTAGCTGTTTCCA, the binding signal (log2 normalized intensity) was 1.22.

With TTCCCTCCACTTCCTTTCTTTCCCTTTCTG, the binding signal (log2 normalized intensity) amounted to 1.48.

On to AGGGTTTAAAGGGCAGAAGAAGGGATTTAG, for which the binding signal (log2 normalized intensity) came to 0.769.

For the sequence GTTAGATAGAGGAGTCAAGCAAACACACTT, the binding signal (log2 normalized intensity) was -1.12.

Turning to ACTCCTGGAAAAACCACACACTCCATAACT, the binding signal (log2 normalized intensity) is -1.03.

As to TGCACAGGTTCCTCGCCTATGGTATGTATG, the binding signal (log2 normalized intensity) is 1.09.

TTGAAGCTCCAAGATAGGAATGTACATAAT: the binding signal (log2 normalized intensity) was determined as 1.11.

In the case of CATAGTTGACATTCCATCATTATCCTGTGT, the binding signal (log2 normalized intensity) came to 1.68.

Regarding CCCCTGACTACCAGCCAGTAGGAGTTGGAA, the binding signal (log2 normalized intensity) worked out at 0.316.

As for ACTTTACAGATAAAGAAACCATAGACCCTA, the binding signal (log2 normalized intensity) was -1.13.

As to AGATAGCTTGAGGCCAGCTCATAGGGATCA, the binding signal (log2 normalized intensity) was -1.17.

In the case of CACATTCAGCCCACTTCCTACCATCAAAGG, the binding signal (log2 normalized intensity) is 0.638.

Turning to TTTGACCATCCACGGGTCCATGATTGCTGT, the binding signal (log2 normalized intensity) stood at 1.51.

For GTGAGAGGCGGAACAAGGCTGAAGGGAAGC, the binding signal (log2 normalized intensity) was -1.08.

Take GTAAAAACAGTTATGGATTAAAAGCACATA: the binding signal (log2 normalized intensity) was -1.08.

For the sequence ACTCCAGAACCAAAGTCCTAGAGTCCCTAT, the binding signal (log2 normalized intensity) is -1.16.

On to TAGCAGGTGACAAATCCAGGATCAAATACA, for which the binding signal (log2 normalized intensity) is -1.24.

Consider CTAGGCAATCCCATGACCTTTGTACTAATG, for which the binding signal (log2 normalized intensity) was 7.57.

Take AAGCACTTCAAAGGTCGTGTGCTTATCACA: the binding signal (log2 normalized intensity) was determined as 1.98.

Regarding CAAAGTCCGCTTGCCTGAGGGTCATGACTA, the binding signal (log2 normalized intensity) is 2.26.

As for TATGTTGTCCGGACACCAACCTTTGATCAT, the binding signal (log2 normalized intensity) turned out to be 5.62.

In the case of CCGGGAATCCTCAGCCTTCTCCGCGGCGGG, the binding signal (log2 normalized intensity) is -1.18.

For the sequence TTTTTGGCCTTTACCCCTTGAGTTTGAACT, the binding signal (log2 normalized intensity) stood at 3.59.

For the sequence CATATTTGCTTAAGCTTTCTGTCTGCAGCT, the binding signal (log2 normalized intensity) is -1.09.

As to GCAGCAGCCGGCCTCTTAACAGATGAGGAC, the binding signal (log2 normalized intensity) is -1.12.

For TTTGGAAAACTGGCCCTGATTTCAAAGTTC, the binding signal (log2 normalized intensity) came to 2.26.

As to CAAATGCTTCCAAGAATTTAAGAGAACTAG, the binding signal (log2 normalized intensity) was -1.15.

On to TCGCAGCTGCATAGATAAGAAAGGCTACAA, for which the binding signal (log2 normalized intensity) is -1.21.
